{"source": "paper PMC12136788", "binders": {"B1": {"name": "chr17:67854386:67854487:+|CDS|ENSG00000171634|unk|FALSE|unique (ssRNA)", "RNA": "GGGAGUUCUACAGUCCGACGAUCAGAGGCAGAGGACUACCCAUAUGGACCAGUAGAGAACAAGAUCAAAGUUCUACAGUUUCUAGUCGAUCAGUUUCUUACAACAAAUAUUGCUCGAGAGGAAUUGAUGUCUGAAGGGGUGAUCAACAGAGGAUUGAGCAUCA"}, "B2": {"name": "chr13:24435276:24435388:-|CDS|ENSG00000102699|unk|total|mutant (ssRNA)", "RNA": "GGGAGUUCUACAGUCCGACGAUCCAAAAGAAAAAUGGAAUUAUCUCAGCCAGAAGUUUCUGAAGAUUUUGAAGAGGAUGGCUCCGGUGUACUACCAGCUUUCACAUCAAAUUUGGAACGUGGAGGUGUGGAAAAGCUAUUGGACAACAGAGGAUUGAGCAUCA"}, "B3": {"name": "chr8:41263181:41263319:-|3pUTR|ENSG00000104332|msi1|FALSE|unique (ssRNA)", "RNA": "GGGAGUUCUACAGUCCGACGAUCCUUAAGUGAUUUGCCUGUAAUUUUGGAUGAUUAAAAAAUGUGUAUAUAUAUUAGCUAAUUAGAAAUAUUCUACUUCUCUGUUGUCAAACUGAAAUUCAGAGCAAGUUCCUGAGUGCGUGGCAACAGAGGAUUGAGCAUCA"}, "B4": {"name": "chr22:36281740:36281783:-|3pUTR|ENSG00000100345|msi1_unk|total|mutant (ssRNA)", "RNA": "GGGAGUUCUACAGUCCGACGAUCUCUGACAGCCAGAGCGUCCGAGGGGCCAGCGGCCCUCCCAGGCGAUCUUGUGUCUACUCCCGGACUGGGCCCGAGGGUGGUUUACCUGCACCGUUGACUCAGUACCGUUUAAAAAUCUGCCAACAGAGGAUUGAGCAUCA"}, "B5": {"name": "chr19:582815:582998:+|CDS_3pUTR|ENSG00000172270|msi1_unk|total|mutant (ssRNA)", "RNA": "GGGAGUUCUACAGUCCGACGAUCUCAUACACUUCCUUCUUUUUUAAAAAAGUUGGGUUUUCUCCAUUCAGGAUUCUGUUCCUCCGGUUUUUUUCCUUCUGAAGUGUUUCACGAGAGCCCGGGAGCUGCUGCCCUGCGGCCCCGCAACAGAGGAUUGAGCAUCA"}, "B6": {"name": "chr17:29548703:29548809:+|3pUTR|ENSG00000160551|unk|FALSE|bound_elsewhere (ssRNA)", "RNA": "GGGAGUUCUACAGUCCGACGAUCAGCACUUGUGAGUGAAAAAUCAUGUAAUUAUCUGUAAAUAUGUAGCUAACAAAUUGACCUAGUUUCUGUAUUUUUUUGUUUUUGUACUAAAGUUUAUAGGUCUGUGCCAGCUAGAGAGAACAACAGAGGAUUGAGCAUCA"}, "B7": {"name": "chr7:6691352:6691453:-|CDS|ENSG00000164631|unk|total|mutant (ssRNA)", "RNA": "GGGAGUUCUACAGUCCGACGAUCUACGAAUGUAAUGAAUGUGGAAAGUUAUUCUCCCAGUUGUCAUACCUCACUAUCCAUCACCGAACUCAUUCAGGAGUAAAACCCUAUGAAUGCCGUGAAUGUGGGAAAACCUUCUACCAGCAACAGAGGAUUGAGCAUCA"}, "B8": {"name": "chr1:166069298:166070240:-|three_prime_utr|ENSG00000188859|control|control|control (ssRNA)", "RNA": "GGGAGUUCUACAGUCCGACGAUCAGUUUCUGAGCCAAAGCAGACCUCUCGGUUUGCCAGCCUUUGCAGCCACUUUUGAAGAGUAGGGCUGCUCCUUGGGUGGUAGAACCAUAAUCCUUAGGAAAAAUCCCUUCCUCUUAGGAACAACAGAGGAUUGAGCAUCA"}, "B9": {"name": "chr3:31636526:31636632:+|3pUTR|ENSG00000163527|unk|FALSE|unique (ssRNA)", "RNA": "GGGAGUUCUACAGUCCGACGAUCCAAAAUGUGAUGAGAGCUUCUUGAACCGGUAAACUAGUACAGGUCUGAGAAAGACAUAUUAGAAGAAUCAUUAUACUUCCUUGAAUUAUAUUUAUUUUCAUGUUUCUCUAAUGCAAAGAACAACAGAGGAUUGAGCAUCA"}, "B10": {"name": "chr15:74955373:74955475:-|3pUTR|ENSG00000178718|unk|FALSE|unique (ssRNA)", "RNA": "GGGAGUUCUACAGUCCGACGAUCGGACAGUUUUCCUUUCUAGUUUUCUUUCCCCUGCUUCAGAGGAGCAUCUCUGAGGGUUCUAGCUCUUUUAACACCCCUUUUCCCCCUGCUGGCCCAGAGGGAGACCCAGGACUGAACUCUCAACAGAGGAUUGAGCAUCA"}, "B11": {"name": "chr5:43295829:43295944:-|CDS|ENSG00000112972|unk|total|mutant (ssRNA)", "RNA": "GGGAGUUCUACAGUCCGACGAUCAAUAUCCCCGCUUUAUUCUAAAGUCAAACUUUAAAAUUUCAUGGCUUAUAUGAAUUUCACCGUUUCCUUGGACUUCUCUUUCAGAGGGAAAUGAUAAAGAUUUUACCUUGAAUGAUUUUGCAACAGAGGAUUGAGCAUCA"}, "B12": {"name": "chr2:135782819:135782876:+|CDS|ENSG00000144224|msi1_unk|FALSE|overlapping (ssRNA)", "RNA": "GGGAGUUCUACAGUCCGACGAUCGUGAGAAAAAGAGUGCUGGAAAAACGUGGAGACGACUUUAAAAAGGAGGGGAAAAUUUAUAGAUUAAGGACUCAAGAUGAUGGUGAAGAUGAAAACAACACUUGGAAUGGAAAUUCCACUCAACAGAGGAUUGAGCAUCA"}, "B13": {"name": "chr9:114598126:114598323:+|3pUTR|ENSG00000136888|msi1|total|mutant (ssRNA)", "RNA": "GGGAGUUCUACAGUCCGACGAUCUCUUUGUAACCUGUGUGAAGCAGCAGCCAGCCUUAAAGCCGUCCAUUCUUGCUAAUGGUCCGAACAGUGAAUACCCGUGGAAUUGUUUGGGCUGCUUUCCGUUUCUCUUAAUCAAAAUUACAACAGAGGAUUGAGCAUCA"}, "B14": {"name": "chr5:52955293:52955406:+|3pUTR|ENSG00000213949|unk|total|mutant (ssRNA)", "RNA": "GGGAGUUCUACAGUCCGACGAUCUACCAACCAGUGUGAGCUGACUUCAGCACACCACUGAGACAGAUUACACGACCGACAGACCGACCGACCGACCGACCGACCGACCGACCGACCGACCGACCGAUAUUGACCGAGAACAUGCAACAGAGGAUUGAGCAUCA"}, "B15": {"name": "chr13:52036708:52036809:-|3pUTR|ENSG00000197168|unk|FALSE|unique (ssRNA)", "RNA": "GGGAGUUCUACAGUCCGACGAUCGUAGAACUUUUGAAUAUAGCCAUUAAUAUUUUUACUUUAAAGUUUCUAUUAAGAAAUCUUAGGCCGGGCAGUCUCAUCACUUUGGGAGGCCAAGGCAGGCAGAUCAUGAGGUCAGGAGUUCAACAGAGGAUUGAGCAUCA"}, "B16": {"name": "chr6:49492913:49492980:+|3pUTR|ENSG00000031691|msi1_unk|FALSE|overlapping (ssRNA)", "RNA": "GGGAGUUCUACAGUCCGACGAUCUGUUGAAUAUUUUCUACUGUCAUCAAAACAUAUUCCCAAAAAGUAUUAAAAAGGAACCUUAGCACAUUUAUUUUAUUAAAACAAGAAAACCCAAAAUAUAUAAACCUUUUCUUAUUAUGACAACAGAGGAUUGAGCAUCA"}, "B17": {"name": "chr22:38111494:38112305:-|three_prime_utr|ENSG00000184381|control|control|control (ssRNA)", "RNA": "GGGAGUUCUACAGUCCGACGAUCAGGCCAAGCCCAGCCACUGCCCUCCCGGGCAGAUCUGGGCCCAGGCACCUCUGAGUCCAUAGACCAGGCCUGGGAGAAUGCCAAGCUGCCUGCCCGAGGCUGGUCCUGAAGGCCUGUCUCCAACAGAGGAUUGAGCAUCA"}, "B18": {"name": "chr10:60791946:60792061:+|CDS|ENSG00000170312|unk|FALSE|unique (ssRNA)", "RNA": "GGGAGUUCUACAGUCCGACGAUCGUCAGCUCGUUACUCAACUCCAGUUGACAUUUGGAGUAUAGGCACCAUAUUUGCUGAACUAGCAACUAAGAAACCACUUUUCCAUGGGGAUUCAGAAAUUGAUCAACUCUUCAGGAUUUUCAACAGAGGAUUGAGCAUCA"}, "B19": {"name": "chr3:149084675:149084859:-|CDS|ENSG00000071794|unk|total|mutant (ssRNA)", "RNA": "GGGAGUUCUACAGUCCGACGAUCCCAACUUUCUUUCCACGUUUUGAAUUCCAAGAUGUUAUCCCUCCAGAUGACUUUCUAACCCGUGAUGAAGAAGCCGAUUCCGUUUUAUUUGGAAGUUUGAGAGGUCAUGUGGUUGGACUACAACAGAGGAUUGAGCAUCA"}, "B20": {"name": "chr17:77216858:77216994:+|3pUTR|ENSG00000129657|unk|FALSE|bound_elsewhere (ssRNA)", "RNA": "GGGAGUUCUACAGUCCGACGAUCUGUUUCUACCUUUAGUACCUUGCCACUCUUUUAAAACGCUGCUGUCAUUUCCCAUUUCUUAGUACUAAUGAUUCUUUGAUUCUCCCUCUAUUAUGUCUUAAUUCACUUUCCUUCCUAAAUCAACAGAGGAUUGAGCAUCA"}, "B21": {"name": "chrX:149548394:149548910:-|CDS|ENSG00000283697|control|control|control (ssRNA)", "RNA": "GGGAGUUCUACAGUCCGACGAUCGCUACUACCUGGAUGGAAGGCACAGGGAUUCUUAGUAGUCUGGUUUACUCAGAUAAUGGUAGUGUAAUGUCUUUGUACAAUAUCUGUUACUAUGCUCUGUUGGCCUCCCUCUCAGUCAUGCAACAGAGGAUUGAGCAUCA"}, "B22": {"name": "ENSG00000070961:be:win_5751|3pUTR|ENSG00000070961|bound_else_gene|NA|bound_elsewhere_windowed (ssRNA)", "RNA": "GGGAGUUCUACAGUCCGACGAUCCUAAAAAUUGACCCUAUCAACUGGAGAGCCCACAAGGCAUAGGGAAUAGAGAAAAGGGAAAUGUUUUCAGUUUUCUUUUUUAUUUUGGUUAUGCUUAAAUAUGAAUGUAAUUACCAAAAGCAACAGAGGAUUGAGCAUCA"}}, "note": "Some of the results follow."}
{"target": "T1, UNK ZnF1-6 (called full-length) (human, UniProt Q9C0B0 30-357)", "T1 sequence": "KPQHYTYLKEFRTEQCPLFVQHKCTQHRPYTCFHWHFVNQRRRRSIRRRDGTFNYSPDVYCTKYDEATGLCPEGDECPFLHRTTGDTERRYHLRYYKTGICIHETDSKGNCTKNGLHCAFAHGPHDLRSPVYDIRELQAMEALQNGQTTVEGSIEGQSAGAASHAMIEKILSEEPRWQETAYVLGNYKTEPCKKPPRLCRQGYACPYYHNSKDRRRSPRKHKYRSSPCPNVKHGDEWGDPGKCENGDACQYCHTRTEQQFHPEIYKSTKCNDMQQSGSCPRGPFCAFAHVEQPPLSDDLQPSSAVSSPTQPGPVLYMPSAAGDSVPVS", "assay": "nsRBNS (natural sequence RNA bind-n-seq); RBNS binding buffer (assumed for nsRBNS): 25 mM Tris pH 7.5, 150 mM KCl, 3 mM MgCl2, 0.01% Triton X-100, 500 ug/ml BSA, 20 U/ml SUPERase-In, 4 C; UNK is unkempt and MSI1 is Musashi-1; names of the RNAs are library labels; protein concentration not given here; high values mean tight binding", "units": {"binding signal": "enrichment R"}}
{"binder": "B1", "binding signal": 0.697}
{"binder": "B2", "binding signal": 0.555}
{"binder": "B3", "binding signal": 3.58}
{"binder": "B4", "binding signal": 0.55}
{"binder": "B5", "binding signal": 0.504}
{"binder": "B6", "binding signal": 6.33}
{"binder": "B7", "binding signal": 0.356}
{"binder": "B8", "binding signal": 0.582}
{"binder": "B9", "binding signal": 1.21}
{"binder": "B10", "binding signal": 10.8}
{"binder": "B11", "binding signal": 0.421}
{"binder": "B12", "binding signal": 0.905}
{"binder": "B13", "binding signal": 0.687}
{"binder": "B14", "binding signal": 0.427}
{"binder": "B15", "binding signal": 21}
{"binder": "B16", "binding signal": 8.45}
{"binder": "B17", "binding signal": 1.94}
{"binder": "B18", "binding signal": 0.452}
{"binder": "B19", "binding signal": 0.5}
{"binder": "B20", "binding signal": 14}
{"binder": "B21", "binding signal": 0.662}
{"binder": "B22", "binding signal": 0.412}
